Sequences with one replicate were seen in a single cluster, so their values are uncertain.
System: ATP
Assay: switch fluorescence ratio, 500 uM ATP over buffer (Cy3 cluster intensity, sum of 5 cycles each) (fold (ratio)); higher = stronger signal-on switching upon ATP binding; sequences stand for … in TCGTCGGCAGCGTCAGATGTGTATAAGAGACAGTTTTTTTTTTTTTTTTTTTTTTTTT…TC
Details: aptamer strand: ATP DNA aptamer (quencher-CACCTGGGGGAGTATTGCGGAGGAAGG + anchor), 100 nM annealed; ATP concentration: 500 uM; one replicate
How it was run: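 Switching-strand clusters labelled with Cy3 on a modified Illumina MiSeq flow-cell were annealed to 100 nM quencher-labelled ATP aptamer, imaged in selection buffer, and re-imaged after 15 min with 500 uM ATP at 22 °C. This was done over five cycles with NaOH stripping and re-annealing in between. The fluorescence ratio is summed target-cycle over summed buffer-cycle Cy3 intensity per cluster, averaged per switch-domain sequence, excluding clusters outside 100-1000 RFU.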
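Further: ATP exposure 15 min at 22 °C before imaging.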

Row | Sequence | switch fluorescence ratio
1 | CGGAGATCAT | 1.03
2 | ACATATCGAA | 1.07
3 | GACCAAAACC | 1.04
4 | AAAGTTCGAT | 1.02
5 | ATCACCGTCC | 1.82
6 | CACAGGGCGC | 1.05
7 | TGCTTAGGGC | 1.03
8 | ATAAATTTAA | 0.973
9 | AGCAGTGGAA | 1.02
10 | TTCTAGGCCC | 0.973
11 | TTCAGTCTAA | 1.02
12 | TTAACTATAC | 1.31
13 | CTAACGTCGA | 1.09
14 | CGGTGTTTTT | 1.03
15 | ATTTGGGGCG | 0.99
16 | AGTGCCTTGT | 0.993
17 | TTACCGATGT | 1
18 | CATTCTGGTT | 0.928
19 | CTACCTAGCC | 1.23
20 | TAATTAGGAG | 1.02
21 | CGCATTGAAC | 3.31
22 | TCAAAGGGCT | 0.938
23 | CTAGAGGTTT | 0.977
24 | TGATTCTCTA | 0.974
25 | TATAGAACAC | 1.06
26 | GCCAGAATTA | 1.02

Row | Sequence | switch fluorescence ratio
27 | ACTCTAACCG | 1.05
28 | CACTGCAGTT | 1.01
29 | ATGGGTTCCG | 1.04
30 | TAAGTGCTAA | 1
31 | CTCGAAAGTT | 1
32 | CCCATGGTTC | 1.02
33 | CAGCTTGGT | 1.03
34 | GTGGCAGTGT | 0.956
35 | ATTATTGGA | 0.968
36 | ACTGTTCTG | 0.981
37 | AGGCGGGACG | 0.961
38 | TAGTCAAGTC | 1.05
39 | TTATCCTCGG | 1.01
40 | GTGTGGAGGC | 1.08
41 | TATCCATATG | 1.02
42 | GCCTAGTTTG | 0.964
43 | GGGGAGGCTT | 0.989
44 | AATGGGTAAT | 0.986
45 | CTAGAAGTTA | 0.994
46 | GTAGCGTGAT | 1.02
47 | CCTCTTTTGA | 1.09
48 | TCGAGGATCC | 0.887
49 | AAAGGGGCAT | 1.03
50 | TTTTACAATG | 0.984
51 | TGGCGCATCT | 0.991
52 | TTTCCTATTA | 0.999

Row | Sequence | switch fluorescence ratio
53 | CAAGGTGTCA | 1.03
54 | TTCTTTTCCC | 1.29
55 | AGCTACGGT | 1.05
56 | AAACAAAGGT | 1.02
57 | AGCAATATTT | 1.96
58 | AGCAGAATAT | 1.02
59 | AAAGACTACT | 1.03
60 | TTCCACCCGC | 2.05
61 | GTCACCCTGT | 1.02
62 | GACCTAGTAG | 0.961
63 | CCTAAGGTAC | 1.96
64 | ACATTTCAGT | 1.03
65 | GGATGCCTCA | 0.974
66 | AAACATACAT | 1.14
67 | TTAAACCT | 2.58
68 | TAATTGGGAC | 1.01
69 | GTCCTTCATA | 0.982
70 | ACCATTGGTT | 0.977
71 | TATTGCGGGT | 1
72 | AGTGGATTGA | 1.04
73 | CTACCACCTA | 1.19
74 | AGCTAGTACC | 1.11
75 | ATCTAGAAGG | 0.943
76 | TCTCTATTTT | 0.981
77 | CGGTTGTGTC | 0.943
78 | AGTCCCACGC | 1.06

Row | Sequence | switch fluorescence ratio
79 | AACAGGCCTG | 0.981
80 | AGAGAAGTAC | 1.21
81 | GATTAGGTAA | 0.939
82 | TGGCAGGCTT | 0.977
83 | CCGTATCTGC | 0.999
84 | AAATCTTAT | 1.02
85 | GGTCGGCCA | 1
86 | GGAATTTACC | 1.02
87 | CGGTCATAGG | 0.989
88 | AGATTGATAC | 1.05
89 | GATCGGGATG | 0.988
90 | GGTGACCGGT | 0.963
91 | GCTACAGGCA | 1.03
92 | CGTCCATAGC | 1.47
93 | TTATATTAT | 1.03
94 | AATGGTTGGC | 1.05
95 | GTAACCGGTC | 1.11
96 | TATAGTGGTA | 1.04
97 | ACACGTGGTA | 0.995
98 | GAGAGACTTT | 1.02
99 | AGGATTCGTG | 0.982
100 | CAGTCGGTC | 0.986
101 | TGCTCGTCC | 0.984
102 | GGGTTTTAAA | 1.02
103 | CCAGGAGTAA | 1.42
104 | GGTTTGGGAA | 0.983

Row | Sequence | switch fluorescence ratio
105 | GGGCGCGTGC | 0.998
106 | AATACGGTTT | 1.07
107 | TCGGATGGGT | 0.977
108 | CGTTTAGCCC | 0.976
109 | TAAATGTGCA | 1.02
110 | TAAAGTCTGG | 0.963
111 | CCACTTTGCG | 1.03
112 | CGCAGTTGGG | 1.06
113 | GGCCTATCTT | 0.982
114 | AGCTCCTGT | 1.01
115 | GAGACAGCGA | 1.09
116 | TATACGCAGA | 1.25
117 | TCCGTCTCGC | 1.13
118 | GACATAAGGT | 0.973
119 | TCCATTCCAG | 0.981
120 | GGTTCTTTTA | 0.964
121 | AAGCCTCGCT | 0.974
122 | CGCTTTGT | 0.988
123 | CATGCCGTTG | 1.01
124 | GCTCAGTACC | 1.09
125 | GATGTAGTAC | 1.32
126 | GGATTTGTTC | 0.943
127 | ACCCGCGGAG | 1.02
128 | CGACTTGGTT | 0.998
129 | GAAGAGTATC | 0.987
130 | GGTGCAGCTA | 0.979

Row | Sequence | switch fluorescence ratio
131 | GACTCACTGG | 1.07
132 | CGAGATGACC | 0.998
133 | AATTTGACTA | 1.02
134 | AACCGGCATG | 1.03
135 | TCGGCGTGT | 1.06
136 | AATACATAGA | 0.966
137 | ATAGGCCCGT | 0.976
138 | ACGGATCAAC | 1.14
139 | CAATGTGTGT | 0.985
140 | TAATGGCCGT | 1.06
141 | AGAATCCTAT | 1
142 | GGGTATATGA | 1.01
143 | CGTGACCCTA | 1.03
144 | CCAACGACCA | 1.6
145 | CATTTAACGC | 0.992
146 | AACCACAAGA | 1.05
147 | TTGCTGGTTA | 1.01
148 | AGGAGGAGCA | 0.938
149 | TTACAGTCTG | 0.993
150 | ATACTGTGCT | 1.01
151 | CGGTCTACTT | 1.01
152 | GACTTAATGT | 1.01
153 | TAGTCCGTGG | 1.16
154 | GAGGGGCAGA | 1.07
155 | TGCCGCTGGC | 1.1
156 | ATAAAAGGAG | 0.947

Row | Sequence | switch fluorescence ratio
157 | GTGTACTCTA | 1.09
158 | GTGCACGTAT | 1.02
159 | TAGATCAGTC | 1
160 | GCTGACAATA | 1.03
161 | GAAATGGGAT | 0.984
162 | TAGGAGTCG | 1.06
163 | GAGTAGTACC | 1.08
164 | TTTGGGTCAC | 1.04
165 | CTGGGTGTAC | 1.05
166 | CAATTAGGGG | 0.972
167 | ATTGTGACTA | 0.965
168 | GTTATCGTAT | 1.01
169 | TGGAAGTTCA | 0.953
170 | GGTGCCGTCA | 1.06
171 | ATGAGAAACT | 1
172 | TGTCAAGAGT | 1.03
173 | AGCTTGTCAC | 1.08
174 | GACGACGTGG | 1.03
175 | TTAGCCGGAG | 0.991
176 | GCCAATCTAA | 0.953
177 | AATTTGTCA | 1.01
178 | ATGTGTTAAA | 1.01
179 | CGATGCGTCC | 1.08
180 | TTATGCAGA | 0.999
181 | TAAGCTACGG | 1.15
182 | AAACCTTCGG | 1.17

Row | Sequence | switch fluorescence ratio
183 | TATTCAATCT | 1.02
184 | CAGAGGGAAC | 1.06
185 | CGTTACTGGG | 0.993
186 | ATATCGGACG | 1.05
187 | AATTCCAGT | 1.01
188 | CATAACACAA | 1.04
189 | TAAAAGGCGT | 0.982
190 | GCATAAACAG | 1.03
191 | GTATTTATAG | 0.996
192 | GTTCGGTTTC | 0.968
193 | TTAGAAGACG | 1.03
194 | ACTCAATGTC | 1.05
195 | TTCTTGTGGA | 0.998
196 | TCACCTGGG | 1.08
197 | ATTTAGATTA | 0.992
198 | CTCATTAGTA | 1.01
199 | CTCCAACCTC | 1.4
200 | AATTGTTTT | 1.02
201 | CGCTATCGAA | 1.02

Reference: the supplement of paper PMC10126150
